In publication PMC12136788 one finds binding signal data, which are given here for 22 molecules.

To fix the notation:
T1: UNK ZnF1-3 (human, UniProt Q9C0B0 31-174)
T1 sequence: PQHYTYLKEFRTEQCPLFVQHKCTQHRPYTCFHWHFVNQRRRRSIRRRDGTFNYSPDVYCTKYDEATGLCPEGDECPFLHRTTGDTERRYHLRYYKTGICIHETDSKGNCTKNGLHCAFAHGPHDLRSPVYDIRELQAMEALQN

B1: chr1:46159212:46159213:+_ENSG00000159596_ENST00000372025|hu_mus|hu_hu_hu_mus_True|18_18 (ssRNA)
RNA: GGGAGUUCUACAGUCCGACGAUCUCUGAUCCCUCCCAAGAAAGCUAGGAAACCGGCUCCAUAAGCCAUCUGAGUGAAAGCUAGGACGGGGAUAUAAGACUUUGUUAUUACCAUGAGCAGUGGUGGAGCAGUAAAGGGGAUUAACAACAGAGGAUUGAGCAUCA
B2: chr1:39494447:39494448:+_ENSG00000168653_ENST00000372967|hu_mus|hu_hu_hu_mus_False|1_18 (ssRNA)
RNA: GGGAGUUCUACAGUCCGACGAUCGCACCGAGCGGCGUUCUUAUAGGGCUGUUCUGCGCUUAGGAACAUAAAGUGCCGGUCCAGGCUGAUGCCCAGCUUUUUCUGUAUGUCAAGGAAAGGCAUGGCCCUGCAGUGCCCCCUUGACAACAGAGGAUUGAGCAUCA
B3: 37057428_37059106_7932_CDS_ENSG00000164190_ENST00000448238|human|control|control (ssRNA)
RNA: GGGAGUUCUACAGUCCGACGAUCAUCUACACGUUUCCGUGACUUCCGAGGCCUGGAAACUUCUUCUUCACUGUCGCUUGACUCAUUUUCCUUACUAGGUGAUGAUUUUCUCUCUUUCCUUUUGUCCUUUACCAUAGACUCCUUCAACAGAGGAUUGAGCAUCA
B4: chr1:114949673:114949674:-_ENSG00000197323_ENST00000358465|hu_mus|FALSE|FALSE (ssRNA)
RNA: GGGAGUUCUACAGUCCGACGAUCGCAUAUCUCUUCUUCAGUCCCAGGUUCCUGCUUGACCUUCACCUGAUCAGACUUGAAACUAUGAGCACUUUUCUCAGCAGUUCUUCCUGAUGAUCCGCAGCUGCCUCGACUGCCAGUACUCAACAGAGGAUUGAGCAUCA
B5: chr2:216986912:216986913:+_ENSG00000079246_ENST00000392132|hu_mus|motif|central (ssRNA)
RNA: GGGAGUUCUACAGUCCGACGAUCCAGUUGUCGUAGACUCUCACUGAAGGAAUAAAUUUCAUCCAGCCCGUCUUCGCCUUCGGAGGACAGCAUCACCCUUGUCACCAUGCGGAUGCCUUCCUUUUGCUGCUCAGUAAGUCCUUUCAACAGAGGAUUGAGCAUCA
B6: chr15:31520727:31520728:-_ENSMUSG00000022234_ENSMUST00000022842|mus_hu|FALSE|FALSE (ssRNA)
RNA: GGGAGUUCUACAGUCCGACGAUCUCUUCAUUCUUCAGAUUCUCCAGGCUUACGAAUGUCAUCAAUCUUCAAAAUCAUUCUAACCAUUUGUGUUGCAAGAGAUAUCUGUUGCUUUUUGCCAAUCAAGGUUUCUAUGACAUGCUGCAACAGAGGAUUGAGCAUCA
B7: chr2:179515052:179515053:+_ENSMUSG00000000305_ENSMUST00000000314|mus_hu|mus_mus_mus_hu_False|78_98 (ssRNA)
RNA: GGGAGUUCUACAGUCCGACGAUCGCUGUCCCAUGCAGUGACGGUAAACGCCACCUGCUCUGAGGGGACCUGCAGCUCCCGGGUGGCGAAGACUGUCCCAUCUGCCCCAACUUUGAAGUCCAUGCUGUUGGUCUCAUAUUGUGUCAACAGAGGAUUGAGCAUCA
B8: chr3:148802587:148802588:-_ENSG00000071794_ENST00000310053|hu_mus|hu_hu_hu_mus_False|18_38 (ssRNA)
RNA: GGGAGUUCUACAGUCCGACGAUCUCCAACAACUUGUCCUCUCAUAGUUCCAAAUAAAACCAAAUCUUGCUCUUCAUCACUCGUUAGGAAGUCAUCUGGAGGGAUAAUGUCUUGGAAUUCAAAACGUGGCAAGAAAGUUGAGUACAACAGAGGAUUGAGCAUCA
B9: chr8:104447970:104447971:+_ENSG00000164934_ENST00000297579|hu_hu|hu_hu_hu_mus_False|18_58 (ssRNA)
RNA: GGGAGUUCUACAGUCCGACGAUCAUACACUUCCCUGCUUCGGCUCUUGUCCACAGGAAAGAUUCUAAUAGACUUAUCGAAACUAGCAGACACAAAUUCCUUCCCAGUGGGAGAGUAAUCCACAUCAAGUACUGCAGACACGUGCAACAGAGGAUUGAGCAUCA
B10: 109010965_109011340_3848_CDS_ENSMUSG00000053646_ENSMUST00000072093|mouse|control|control (ssRNA)
RNA: GGGAGUUCUACAGUCCGACGAUCUAGCUGCUCAGACUGCUGCUCCAGGAGCAGGUGGCAAGGCUGGUCUCCAACCACCACACGGAUGUCCUCUAGCCGUCCAGUCAGGAGCUUAGAACCAUGCAGGGUAAGGCGGGUACCUCCCAACAGAGGAUUGAGCAUCA
B11: chr18:38101097:38101098:-_ENSMUSG00000024454_ENSMUST00000043498|mus_mus|motif|central (ssRNA)
RNA: GGGAGUUCUACAGUCCGACGAUCGGUGCUGACAUCUGGAUGGAGUGUGAAAUCUGGGGCAAAGUACUCGAAGUAUUCACGGUAGGGAAGUUCCUCACUAAUGGCCUCUUCUACCAGCAGAGAUGUUUCAUAUGUCCAACACCGCAACAGAGGAUUGAGCAUCA
B12: chrX:7458662:7458663:+_ENSMUSG00000031155_ENSMUST00000033495|mus_mus|FALSE|FALSE (ssRNA)
RNA: GGGAGUUCUACAGUCCGACGAUCAAGCAGGGCGCCGGAACCAAAAUCAAUGAGUUUAAUGGAACCCCGGCAUAGGUCGAUCAGGAUGUUCUCAUCCUUGAUAUCCCGAUGGACAACUCCACGGGCGUGGCAGUGCUGGACAGCCAACAGAGGAUUGAGCAUCA
B13: chrX:101152592:101152593:-_ENSMUSG00000056537_ENSMUST00000070705|mus_mus|FALSE|FALSE (ssRNA)
RNA: GGGAGUUCUACAGUCCGACGAUCUUAAGUCUGCAGUAUGACAUCGUACAUAGGGAAAAAGCUUCUUCCUAAAAGAUAGCUAUUAAUAAUCAAACCAGAUUUCAUGACUGACCUUUCAAGGUCUCUUUCUGCAUUAAACAAGGUCAACAGAGGAUUGAGCAUCA
B14: chr16:13130331:13130332:+_ENSMUSG00000022545_ENSMUST00000023206|mus_mus|motif|central (ssRNA)
RNA: GGGAGUUCUACAGUCCGACGAUCCUUUCUAACAUUUACCCACACUUCUUCAGCUUUGCCAUCCUUCUCAAAAGUUUUCCGGUAAAGUCGCAGCAGGAAGGUUUCUGCUCCGGCGGACAGGUAGUCUCUCAGCUGGCAGCACGUCAACAGAGGAUUGAGCAUCA
B15: 26441060_26448423_608_CDS_ENSG00000175087_ENST00000374271|human|control|control (ssRNA)
RNA: GGGAGUUCUACAGUCCGACGAUCCAUAUCUCCUCCGUCACAAAAAUCCAUCACAAACCACAAAUAAUAGGCGCUUCUGGGAUCAAAGGCAAUUUCUCCUUUUAAUGAAGUUUCUACAAGCUGUAAAUAAAGGGAAGAAUUAGACAACAGAGGAUUGAGCAUCA
B16: 156294498_156296098_474_CDS_ENSG00000164114_ENST00000311277|human|control|control (ssRNA)
RNA: GGGAGUUCUACAGUCCGACGAUCCAAUAGUUUUGAAGGAUUCUUUUCUUCAUCAUCUGAUAUAUGAAAGUCAUUCAUUUUUUUAUUAACUGAAUUUUCAUCUGCUGAAGUGUCAGAAAAAUCACCUAAAGAAACAAUCUCAUCCAACAGAGGAUUGAGCAUCA
B17: chr1:88750987:88750988:+_ENSMUSG00000053333_ENSMUST00000065694|mus_hu|FALSE|FALSE (ssRNA)
RNA: GGGAGUUCUACAGUCCGACGAUCCGAUAAAGCUCUUGUGUCUUGUGAAAUGCAGGUGGUCUCAUCUUUUGUAACCGGUGCAUCACCAUCCUCUCUUCCUUUCUCAGAAACACAAACUGAGAGUUUCUUAACACCAUCAACCAGCAACAGAGGAUUGAGCAUCA
B18: 155408179_155408299_6185_CDS_ENSG00000116539_ENST00000392403|human|control|control (ssRNA)
RNA: GGGAGUUCUACAGUCCGACGAUCUUCCAAUAGCCAACCUUUUCUCUUCAACCCCUUUUUAUGUUCUGGGUUCAGAUUUACACUCUGAACAACAGCCUCAAUUACAUCUGUAACUGUGUCAGGACUGAGGUGCAGUGCUGCUCCCAACAGAGGAUUGAGCAUCA
B19: 22956548_22958262_2036_CDS_ENSG00000068793_ENST00000560848|human|control|control (ssRNA)
RNA: GGGAGUUCUACAGUCCGACGAUCCCUCCUGCCCAUGGUCAGCUCCAGGAAGAACUCUCGGAACCACAGCUGCGAAAGGUCACAGCACUGCUGCAGCGUUUCACUGAAAUUUAUCAAGUGAGUGUAGAAGAAUGACUCUCGAUGCAACAGAGGAUUGAGCAUCA
B20: chr1:151373778:151373779:+_ENSG00000159377_ENST00000290541|hu_hu|motif|central (ssRNA)
RNA: GGGAGUUCUACAGUCCGACGAUCAAACCGGUUGUAAGAACGGGCAUCUCGGUAGUACAGCACUCGCAUGCAGCGUUCGGCGGAGUCGCGGGCCUCGGUCUGGCUUAGCACUGGCUGCUUCUCCAGAACUUCUCGCAGCAGAGGCAACAGAGGAUUGAGCAUCA
B21: 108059836_108059956_598_CDS_ENSG00000149308_ENST00000278612|human|control|control (ssRNA)
RNA: GGGAGUUCUACAGUCCGACGAUCUACAGUAUCUUGUGACUGUGAGUGGUUGACCACUACAAAAUAUGACCUCGAUGGAUCUGAAAUUUGGCCACUUGGUCGAGUAACCUGUGUACCUGUGGAAGGAGGAGUGGUAAACUGUCCCAACAGAGGAUUGAGCAUCA
B22: 68058664_68058876_2676_CDS_ENSMUSG00000037685_ENSMUST00000037380|mouse|control|control (ssRNA)
RNA: GGGAGUUCUACAGUCCGACGAUCUUUGAACUGAGCGAUGGAGUAAUCUGAAGAGUUGGCUGCCUGCAAACCUUCAUUGCCGCUUAUCCCAACACCCACAUGGGCCGUCUGGAUCAUGCUGACGUCAUUUGCUCCAUCCCCGAUCAACAGAGGAUUGAGCAUCA

The list shows a part of the results.

The experiment addresses T1, UNK ZnF1-3. As to the kind of experiment: nsRBNS (natural sequence RNA bind-n-seq); RBNS binding buffer (assumed for nsRBNS): 25 mM Tris pH 7.5, 150 mM KCl, 3 mM MgCl2, 0.01% Triton X-100, 500 ug/ml BSA, 20 U/ml SUPERase-In, 4 C; UNK is unkempt and MSI1 is Musashi-1; names of the RNAs are library labels; protein concentration not given here; high values mean tight binding.
In the case of B1, the binding signal was found to be 2.38 enrichment R. As for B2, the binding signal is 0.741 enrichment R. Regarding B3, the binding signal was 0.274 enrichment R.

As to B4, the binding signal came out at 0.767 enrichment R.

Regarding B5, the binding signal was 1.5 enrichment R. Molecule B6 showed a binding signal of 0.776 enrichment R. On to B7, for which the binding signal was found to be 0.753 enrichment R. On to B8, for which the binding signal is 1.32 enrichment R. B9: the binding signal came out at 0.785 enrichment R. Regarding B10, the binding signal worked out at 1.02 enrichment R. Molecule B11 had a binding signal of 1.45 enrichment R. In turn, B12 returned a binding signal of 1.04 enrichment R. B13 showed a binding signal of 0.696 enrichment R.

B14 yielded a binding signal of 0.512 enrichment R. Next, B15: 1.68 enrichment R; B16: 0.616 enrichment R; B17: 0.774 enrichment R.

As to B18, the binding signal was determined as 0.788 enrichment R. With B19, the binding signal came out at 1.04 enrichment R. As to B20, the binding signal is 1.2 enrichment R. B21 came in with a binding signal of 0.754 enrichment R. The molecule B22 gave a binding signal of 0.781 enrichment R.
